This is an account of results in publication PMC5892938.

The other results are listed elsewhere or left out. At the low end of the ranking, values are background and their order means little.

The target in the assay is GST-SBP-SLBP (stem-loop binding protein) (UniProt Q14493). The experiment in a line: targeted RNA Bind-n-Seq.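 Further: DESeq read counts versus GST-SBP nonspecific binding control pulldown.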 Conditions: RBNS binding buffer: 25 mM Tris pH 7.5, 150 mM KCl, 3 mM MgCl2, 0.1% Tween, 0.5 mg/mL BSA, 1 mM DTT; 27 nM protein, 750 pM RNA pool; temperature not stated; high values mean tight binding.
With “GGUCACGUCUCAAUCAACUCUUAGGAGGGGGGGAAAACCCCUUUACCCUCAAUCUCAACAGCUCGCAGUCAAG”, the binding signal (log2 fold change) is -0.175.
Next, “GGUCACGUCUCAAUCAACUCAAACGAGGGGGGGAAAACCCCUUUACCCUCCAUAUCAACAGCUCGCAGUCAAG”: 0.344; “GGUCACGUCUCAAUCAACUCAGUCUCCAGGGAAACCCCUGGCAAAUUCAACAGCUCGCAGUCAAG”: -0.418; “GGUCACGUCUCAAUCAACUCAACUGAGGGGGGGAAAACCCCUUUACCCUCCAUAUCAACAGCUCGCAGUCAAG”: -0.277.
Next, “GGUCACGUCUCAAUCAACUCAAUGUCAGGAGUUUGCUCCUGCUUUCUCAACAGCUCGCAGUCAAG”: -0.0289.
For the sequence “GGUCACGUCUCAAUCAACUCUCCAGAGGGGGGGAAAACCCCUUUACCCUCAUAAUCAACAGCUCGCAGUCAAG”, the binding signal (log2 fold change) was -0.789.
For “GGUCACGUCUCAAUCAACUCUAGUCCAGGAGUUUCCUCCUGUAAUUUCAACAGCUCGCAGUCAAG” the value was -0.149.
For “GGUCACGUCUCAAUCAACUCAAUCUCAGGAGUUUUCUCCUGCUAUUUCAACAGCUCGCAGUCAAG” the value was 0.339; for “GGUCACGUCUCAAUCAACUCAAUUUCCAGGGAAAUCCCUGGUUUAUUCAACAGCUCGCAGUCAAG”, -0.0415; for “GGUCACGUCUCAAUCAACUCUAUAGAGGGGGGGAAAACCCCUUUACCCUCAAUUUCAACAGCUCGCAGUCAAG”, -0.228.
Regarding “GGUCACGUCUCAAUCAACUCUUCUCCCAGGGAAACCCCUGGCAAUCUCAACAGCUCGCAGUCAAG”, the binding signal (log2 fold change) came out at 0.231.
For “GGUCACGUCUCAAUCAACUCUAUUUCCAGGGAAAGCCCUGGUAUUUUCAACAGCUCGCAGUCAAG” the value was 0.0351; for “GGUCACGUCUCAAUCAACUCAAUCUCCAGGGAAAACCCUGGCUAUUUCAACAGCUCGCAGUCAAG”, 0.00637.
For “GGUCACGUCUCAAUCAACUCUUUUUCAGGAGUUUUCUCCUGCAAAUUCAACAGCUCGCAGUCAAG” the value was 0.142; for “GGUCACGUCUCAAUCAACUCAUUAGAGGGGGGGAAAACCCCUUUACCCUCAUCUUCAACAGCUCGCAGUCAAG”, -0.4; for “GGUCACGUCUCAAUCAACUCUCAAGAGGGGGGGAAAACCCCUUUGCCCUCAACUUCAACAGCUCGCAGUCAAG”, 0.148.
For “GGUCACGUCUCAAUCAACUCUUUCUCCAGGGAAAUCCCUGGCAUUUUCAACAGCUCGCAGUCAAG” the value was -0.0484; for “GGUCACGUCUCAAUCAACUCAUCCCCCAGGGAAACCCCUGGCUAACUCAACAGCUCGCAGUCAAG”, 0.0885.
As to “GGUCACGUCUCAAUCAACUCAUUUUCCAGGGAAAACCCUGGUAAUUUCAACAGCUCGCAGUCAAG”, the binding signal (log2 fold change) is -0.137.
Next, “GGUCACGUCUCAAUCAACUCUAUUUCAGGAGUUUACUCCUGUAUACUCAACAGCUCGCAGUCAAG”: -0.0451; “GGUCACGUCUCAAUCAACUCAGUUUCCAGGGAAAUCCCUGGCUUAUUCAACAGCUCGCAGUCAAG”: -0.121.
For “GGUCACGUCUCAAUCAACUCACAAGAGGGGGGGAAAACCCCUUUACCCUCAAUCUCAACAGCUCGCAGUCAAG” the value was -0.0692.
“GGUCACGUCUCAAUCAACUCCCCAGAGGGGGGGAAAACCCCUUUGCCCUCAAUCUCAACAGCUCGCAGUCAAG”: the binding signal (log2 fold change) is -0.197.
Regarding “GGUCACGUCUCAAUCAACUCAUUCUCAGGAGUUUACUCCUGCUAUUUCAACAGCUCGCAGUCAAG”, the binding signal (log2 fold change) was 0.0743.
For “GGUCACGUCUCAAUCAACUCAAUGUCAGGAGUUUACUCCUGUUUUCUCAACAGCUCGCAGUCAAG” the value was -0.0179.
As for “GGUCACGUCUCAAUCAACUCAUCUCCAGGAGUUUUCUCCUGCAUUCUCAACAGCUCGCAGUCAAG”, the binding signal (log2 fold change) was 0.0148.
For “GGUCACGUCUCAAUCAACUCAAUUCCAGGAGUUUCCUCCUGCUAAUUCAACAGCUCGCAGUCAAG” the value was 0.03; for “GGUCACGUCUCAAUCAACUCAAUCUCCAGGGAAACCCCUGGCAUUUUCAACAGCUCGCAGUCAAG”, -0.0834.
For “GGUCACGUCUCAAUCAACUCAUAAGAGGGGGGGAAAACCCCUUUGCCCUCAGAAUCAACAGCUCGCAGUCAAG” the value was -0.256; for “GGUCACGUCUCAAUCAACUCUUCAGAGGGGGGGAAAACCCCUUUACCCUCAUCUUCAACAGCUCGCAGUCAAG”, 0.0819.
In the case of “GGUCACGUCUCAAUCAACUCAAUUUCAGGAGUUUUCUCCUGUAUGUUCAACAGCUCGCAGUCAAG”, the binding signal (log2 fold change) is -0.0374.
Next, “GGUCACGUCUCAAUCAACUCUUUCUCCAGGGAAACCCCUGGCUUUUUCAACAGCUCGCAGUCAAG”: 0.075; “GGUCACGUCUCAAUCAACUCAAUUUCAGGAGUUUCCUCCUGCAUUCUCAACAGCUCGCAGUCAAG”: -0.045; “GGUCACGUCUCAAUCAACUCUAUUCCAGGAGUUUUCUCCUGCAUACUCAACAGCUCGCAGUCAAG”: -0.0641.
Next, “GGUCACGUCUCAAUCAACUCCACAGAGGGGGGGAAAACCCCUUUACCCUCCUAAUCAACAGCUCGCAGUCAAG”: 0.215; “GGUCACGUCUCAAUCAACUCUACUUCCAGGGAAAUCCCUGGUUAUCUCAACAGCUCGCAGUCAAG”: 0.238; “GGUCACGUCUCAAUCAACUCAUUCCCAGGAGUUUGCUCCUGCUAUUUCAACAGCUCGCAGUCAAG”: -0.142.
In the case of “GGUCACGUCUCAAUCAACUCUUCUUCAGGAGUUUACUCCUGCUUUUUCAACAGCUCGCAGUCAAG”, the binding signal (log2 fold change) is -0.114.
“GGUCACGUCUCAAUCAACUCAACUUCAGGAGUUUCCUCCUGUUAACUCAACAGCUCGCAGUCAAG”: the binding signal (log2 fold change) was -0.023.
On to “GGUCACGUCUCAAUCAACUCAUCCUCCAGGGAAAACCCUGGUAAUUUCAACAGCUCGCAGUCAAG”, for which the binding signal (log2 fold change) amounted to 0.126.
On to “GGUCACGUCUCAAUCAACUCUUUCCCAGGAGUUUCCUCCUGCAAAUUCAACAGCUCGCAGUCAAG”, for which the binding signal (log2 fold change) amounted to 0.11.
For “GGUCACGUCUCAAUCAACUCUAUGUCAGGAGUUUCCUCCUGCUUUUUCAACAGCUCGCAGUCAAG”, the binding signal (log2 fold change) came to 0.00272.
Next, “GGUCACGUCUCAAUCAACUCCAUAGAGGGGGGGAAAACCCCUUUACCCUCAAAUUCAACAGCUCGCAGUCAAG”: -0.366.
For the sequence “GGUCACGUCUCAAUCAACUCAUCCCCCAGGGAAAUCCCUGGCAAACUCAACAGCUCGCAGUCAAG”, the binding signal (log2 fold change) was -0.194.
Next, “GGUCACGUCUCAAUCAACUCACUAGAGGGGGGGAAAACCCCUUUGCCCUCACCAUCAACAGCUCGCAGUCAAG”: 0.196; “GGUCACGUCUCAAUCAACUCUUUUUCCAGGGAAACCCCUGGCUUACUCAACAGCUCGCAGUCAAG”: 0.114; “GGUCACGUCUCAAUCAACUCAAUUCCAGGAGUUUCCUCCUGUAUUCUCAACAGCUCGCAGUCAAG”: 0.135.
Take “GGUCACGUCUCAAUCAACUCCCUAGAGGGGGGGAAAACCCCUUUGCCCUCAUAAUCAACAGCUCGCAGUCAAG”: the binding signal (log2 fold change) was -0.291.
Next, “GGUCACGUCUCAAUCAACUCAAUUUCCAGGGAAACCCCUGGUUAACUCAACAGCUCGCAGUCAAG”: -0.33; “GGUCACGUCUCAAUCAACUCCUUAGAGGGGGGGAAAACCCCUUUGCCCUCGUUUUCAACAGCUCGCAGUCAAG”: 0.342.
Next, “GGUCACGUCUCAAUCAACUCAUUCUCAGGAGUUUGCUCCUGUAUUUUCAACAGCUCGCAGUCAAG”: 0.0813; “GGUCACGUCUCAAUCAACUCAUCCCCAGGAGUUUUCUCCUGUUUACUCAACAGCUCGCAGUCAAG”: 0.0867; “GGUCACGUCUCAAUCAACUCAAUUCCAGGAGUUUACUCCUGCUAACUCAACAGCUCGCAGUCAAG”: 0.106.
As for “GGUCACGUCUCAAUCAACUCUACUCCCAGGGAAAACCCUGGCAAAUUCAACAGCUCGCAGUCAAG”, the binding signal (log2 fold change) was 0.0986.
For “GGUCACGUCUCAAUCAACUCUUCCCCAGGAGUUUCCUCCUGUAAUCUCAACAGCUCGCAGUCAAG”, the binding signal (log2 fold change) stood at 0.0344.
For the sequence “GGUCACGUCUCAAUCAACUCUAGUCCCAGGGAAAUCCCUGGCAAAUUCAACAGCUCGCAGUCAAG”, the binding signal (log2 fold change) is -0.0255.
Next, “GGUCACGUCUCAAUCAACUCAUCCUCCAGGGAAAGCCCUGGUAUUUUCAACAGCUCGCAGUCAAG”: 0.225; “GGUCACGUCUCAAUCAACUCCCUGGAGGGGGGGAAAACCCCUUUACCCUCAUUUUCAACAGCUCGCAGUCAAG”: -0.503; “GGUCACGUCUCAAUCAACUCUUCUCCAGGAGUUUUCUCCUGUAUAUUCAACAGCUCGCAGUCAAG”: -0.142.
Next, “GGUCACGUCUCAAUCAACUCAUCUUCCAGGGAAACCCCUGGCUUUUUCAACAGCUCGCAGUCAAG”: -0.104.
Regarding “GGUCACGUCUCAAUCAACUCAACUUCCAGGGAAAACCCUGGCUUAUUCAACAGCUCGCAGUCAAG”, the binding signal (log2 fold change) is -0.0263.
Regarding “GGUCACGUCUCAAUCAACUCAAUUCCCAGGGAAAACCCUGGUUAUCUCAACAGCUCGCAGUCAAG”, the binding signal (log2 fold change) was -0.123.
“GGUCACGUCUCAAUCAACUCUAUUUCAGGAGUUUACUCCUGCAUUCUCAACAGCUCGCAGUCAAG”: the binding signal (log2 fold change) worked out at 0.111.
For “GGUCACGUCUCAAUCAACUCUUUUCCCAGGGAAAACCCUGGUUUACUCAACAGCUCGCAGUCAAG” the value was 0.0481.
Next, “GGUCACGUCUCAAUCAACUCUUUAGAGGGGGGGAAAACCCCUUUACCCUCAUAUUCAACAGCUCGCAGUCAAG”: -0.00288; “GGUCACGUCUCAAUCAACUCAUCGUCCAGGGAAAACCCUGGUAUUUUCAACAGCUCGCAGUCAAG”: -0.0125; “GGUCACGUCUCAAUCAACUCAUACGAGGGGGGGAAAACCCCUUUACCCUCUCAAUCAACAGCUCGCAGUCAAG”: -0.101.
Next, “GGUCACGUCUCAAUCAACUCCAUAGAGGGGGGGAAAACCCCUUUGCCCUCACUAUCAACAGCUCGCAGUCAAG”: -0.101; “GGUCACGUCUCAAUCAACUCUUCCUCAGGAGUUUACUCCUGUAUUCUCAACAGCUCGCAGUCAAG”: 0.131.
In the case of “GGUCACGUCUCAAUCAACUCUUAGGAGGGGGGGAAAACCCCUUUACCCUCAACCUCAACAGCUCGCAGUCAAG”, the binding signal (log2 fold change) is -0.326.
For “GGUCACGUCUCAAUCAACUCAACUCCCAGGGAAAGCCCUGGCUUACUCAACAGCUCGCAGUCAAG” the value was -0.168.
For “GGUCACGUCUCAAUCAACUCUAUUUCCAGGGAAAGCCCUGGUUAACUCAACAGCUCGCAGUCAAG” the value was 0.269; for “GGUCACGUCUCAAUCAACUCUUCCUCCAGGGAAACCCCUGGUUAACUCAACAGCUCGCAGUCAAG”, 0.443.
As to “GGUCACGUCUCAAUCAACUCUUCCUCCAGGGAAACCCCUGGCAAACUCAACAGCUCGCAGUCAAG”, the binding signal (log2 fold change) was determined as 0.0958.
